{"source": "paper PMC10691697", "about": "“A small molecule exerts selective antiviral activity by targeting the human cytomegalovirus nuclear egress complex” (PLOS Pathogens, 2023)", "key": {"[1]": {"target": "T1, HSV-1 P30-UL42 (Human herpesvirus 1, UniProt P10226)", "T1 construct": "containing UL42 residues 1–340; GST (N); glycine-serine linker of the modified pGEX6p plasmid (presence inferred) (N); made in house; host or cells: E. coli (UL42: pLysS BL21)", "test": "biochemical", "type": "binding", "details": "all concentrations tested (up to 50 μM)"}, "[2]": {"test_system": "MCMV M50-M53", "type": "binding"}, "[3]": {"target": "T2, HCMV NEC (His-UL50, Myc-UL53) (Human cytomegalovirus, UniProt P16794)", "T2 construct": "GST (N, cleaved yes); 13-residue glycine-serine linker […]; made in house; host or cells: E. coli BL21 (DE3) RIPL", "test": "co-immunoprecipitation assay of His-UL50 and Myc-UL53", "type": "binding", "details": "10 or 20 μM GK1; 0.3 μM NEC", "method": "0.3 μM purified HCMV NEC in 50 mM Hepes (pH 7.5) and 200 mM NaCl were incubated with DMSO or with 10 μM or 20 μM GK1 at RT for 30 min followed by incubation at 4°C overnight. For immunoprecipitation of His-UL50, each sample was incubated with 25 μL Dynabeads His-Tag magnetic beads (Invitrogen) on a roller for 10 min at RT, followed by four washes and then elution from the beads using the manufacturer’s guidance. For immunoprecipitation of Myc-UL53, each sample was incubated with 50 μL Pierce anti-c-Myc magnetic beads (ThermoFisher Scientific) on a roller for 30 min at RT. Then the beads were washed three times and the proteins were eluted from the beads with 50 μL 0.5mg/mL Pierce c-Myc peptide (ThermoFisher Scientific) following the manufacturer’s guidance. To test the binding specificity of the beads, 0.3 μM purified HCMV His-UL50 alone or HCMV Myc-UL53 alone was incubated with His-tag magnetic beads or Myc-tag magnetic beads, and the corresponding immunoprecipitation was performed with the same protocols described above. Aliquots of the input samples (2.5% of what was incubated with each type of magnetic beads) as well as proteins eluted from the beads (20% of each eluate) were subjected to SDS-PAGE, followed by Western blot analysis using a mouse anti-His antibody (1:1,000, Invitrogen) and a mouse anti-Myc antibody (1:1,000, Invitrogen)."}, "[4]": {"test_system": "co-localization of UL53 with UL50 at the nuclear rim", "type": "cell-based", "details": "10 μM, WT-infected cells, MOI 1, 72 hpi"}, "[5]": {"test_system": "HCMV expressing GFP (53-F BADGFP)"}, "[6]": {"test": "HTRF assay without protein targets (interference)", "details": "for Fluorescence at 620 nm (GK1) / HTRF ratio for GK1: no protein, singlicate; for HTRF ratio for GK1: A665nm/A620nm * 10000"}, "[7]": {"test_system": "HCMV protein expression (IE1, IE2, UL57, UL50, UL53, pp28)", "test": "Western blot analysis of protein expression in infected cells", "details": "10 μM, MOI 1, 72 hpi, based on dilution series"}}}
{"smiles": "C=CC(=O)Nc1cccc(Oc2cc(Cl)nc3[nH]ccc23)c1", "note": "[GK1]", "values": [{"measurement": "inhibition in the HSV-1 P30-UL42 counterscreen assay", "setting": "[1]", "result": "did not show meaningful inhibition"}, {"measurement": "inhibition in HTRF assay for interactions of mouse cytomegalovirus NEC subunits", "setting": "[2]", "result": "did not show inhibition"}, {"measurement": "co-immunoprecipitation of His-UL50 by anti-Myc antibody", "setting": "[3]", "result": "decreased co-immunoprecipitation of His-UL50"}, {"measurement": "decrease of co-immunoprecipitation of Myc-UL53 by anti-His antibody", "setting": "[3]", "result": "> 2", "unit": "fold"}, {"measurement": "subset of cells with substantial nucleoplasmic UL53 staining", "setting": "[4]", "result": "~ 20%"}, {"measurement": "reduction of plaque formation", "setting": "[5]; 10 μM", "result": "≥ 5", "unit": "fold"}, {"measurement": "ED50, HCMV plaque formation", "setting": "[5]; HFF, automated plaque reduction assay, 6 dpi", "result": 830, "unit": "nM"}, {"measurement": "CC50/ED50", "setting": "[5]; anti-HCMV ED50 (APRA) and parallel WST-1 CC50", "result": 27}, {"measurement": "effect on HTRF signal in the absence of protein (interference)", "setting": "[6]", "result": "little or no effect"}, {"measurement": "Fluorescence at 620 nm (GK1)", "setting": "[6]; 0.5 microM", "result": 7173}, {"measurement": "Fluorescence at 620 nm (GK1)", "setting": "[6]; 0.71 microM", "result": 7007}, {"measurement": "Fluorescence at 620 nm (GK1)", "setting": "[6]; 1.01 microM", "result": 6787}, {"measurement": "HTRF ratio for GK1", "setting": "[6]; 1.43 microM", "result": 8220}, {"measurement": "Fluorescence at 620 nm (GK1)", "setting": "[6]; 1.43 microM", "result": 6741}, {"measurement": "HTRF ratio for GK1", "setting": "[6]; 2.04 microM", "result": 7808}, {"measurement": "Fluorescence at 620 nm (GK1)", "setting": "[6]; 2.04 microM", "result": 6607}, {"measurement": "HTRF ratio for GK1", "setting": "[6]; 2.91 microM", "result": 8020}, {"measurement": "Fluorescence at 620 nm (GK1)", "setting": "[6]; 2.91 microM", "result": 6586}, {"measurement": "HTRF ratio for GK1", "setting": "[6]; 4.15 microM", "result": 7605}, {"measurement": "Fluorescence at 620 nm (GK1)", "setting": "[6]; 4.15 microM", "result": 6502}, {"measurement": "HTRF ratio for GK1", "setting": "[6]; 5.91 microM", "result": 8051}, {"measurement": "Fluorescence at 620 nm (GK1)", "setting": "[6]; 5.91 microM", "result": 6707}, {"measurement": "HTRF ratio for GK1", "setting": "[6]; 8.42 microM", "result": 7714}, {"measurement": "HTRF ratio for GK1", "setting": "[6]; 12 microM", "result": 7648}, {"measurement": "HTRF ratio for GK1", "setting": "[6]; 17.1 microM", "result": 7606}, {"measurement": "HTRF ratio for GK1", "setting": "[6]; 24.2 microM", "result": 7973}, {"measurement": "HTRF ratio for GK1", "setting": "[6]; 34.7 microM", "result": 7675}, {"measurement": "HTRF ratio for GK1", "setting": "[6]; 49.5 microM", "result": 7520}, {"measurement": "effect on expression of IE1, IE2, UL57, UL50, UL53, pp28", "setting": "[7]", "result": "< 2", "unit": "fold"}]}
